Reference: article PMC4336329 (PLoS ONE, 2015)
Among all 310,000 compounds or so, about 2,200 (0.71%) showed an effect of 50% or more. The effect is printed as a negative number. The list shows a part of the results.

What follows are compounds tested against human ether-à-go-go-related gene (hERG) potassium channel (human, UniProt Q12809) (assay: primary screen, population patch clamp on CHO cells stably expressing hERG).
Sequence of human ether-à-go-go-related gene (hERG) potassium channel (Q12809 whole entry, looked up): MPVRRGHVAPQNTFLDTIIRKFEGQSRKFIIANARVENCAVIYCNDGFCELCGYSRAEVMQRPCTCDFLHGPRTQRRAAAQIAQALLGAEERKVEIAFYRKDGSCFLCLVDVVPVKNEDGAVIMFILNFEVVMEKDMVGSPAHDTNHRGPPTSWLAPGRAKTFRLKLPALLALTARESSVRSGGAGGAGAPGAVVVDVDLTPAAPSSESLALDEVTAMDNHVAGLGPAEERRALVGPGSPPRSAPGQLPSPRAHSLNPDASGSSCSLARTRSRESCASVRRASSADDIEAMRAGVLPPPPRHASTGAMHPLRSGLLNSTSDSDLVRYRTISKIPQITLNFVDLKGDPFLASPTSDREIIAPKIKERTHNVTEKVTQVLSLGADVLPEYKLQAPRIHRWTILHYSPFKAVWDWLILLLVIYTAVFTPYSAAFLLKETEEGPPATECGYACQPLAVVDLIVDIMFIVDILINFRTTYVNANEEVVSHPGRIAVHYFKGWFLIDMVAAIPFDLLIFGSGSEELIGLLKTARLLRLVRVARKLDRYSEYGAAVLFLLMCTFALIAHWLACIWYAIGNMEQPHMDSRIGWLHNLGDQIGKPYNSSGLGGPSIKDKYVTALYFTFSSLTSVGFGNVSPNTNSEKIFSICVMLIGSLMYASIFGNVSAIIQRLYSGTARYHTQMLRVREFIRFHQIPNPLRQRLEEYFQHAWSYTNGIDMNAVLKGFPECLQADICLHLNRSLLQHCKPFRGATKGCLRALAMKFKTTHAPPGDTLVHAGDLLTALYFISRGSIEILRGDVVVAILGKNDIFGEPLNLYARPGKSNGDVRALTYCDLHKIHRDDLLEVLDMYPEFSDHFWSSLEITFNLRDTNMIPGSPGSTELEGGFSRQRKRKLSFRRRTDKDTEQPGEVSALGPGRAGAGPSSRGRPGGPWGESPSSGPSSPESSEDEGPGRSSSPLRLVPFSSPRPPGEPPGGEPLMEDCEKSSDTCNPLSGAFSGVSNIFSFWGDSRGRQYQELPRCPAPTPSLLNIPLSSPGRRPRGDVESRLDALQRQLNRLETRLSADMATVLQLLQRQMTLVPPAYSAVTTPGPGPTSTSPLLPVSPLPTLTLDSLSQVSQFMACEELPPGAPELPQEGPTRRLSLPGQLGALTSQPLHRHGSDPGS

Compared with `CS(=O)(=O)N1CCN(c2ccnc3cc(Cl)ccc23)CC1`, `Cc1ccc(/C=C/C(=O)N2CCN(c3ccc(F)cc3)CC2)o1` is higher in “hERG current change (%, negative = inhibition) at 1uM” value: -81.3% for the first, 12% for the second.

Compared with `Cc1ccc(NC(=O)CN(C)C2CCCCC2)cc1Cl.O=C(O)C(=O)O`, `O=C(NC1CCCCC1)c1cc(C(=O)c2ccccc2Br)c[nH]1` is lower in “hERG current change (%, negative = inhibition) at 1uM” value: 11.2% for the first, 10.6% for the second.

Going from `COc1ccc(CCNC(=O)C(=O)NCc2ccc(C(C)C)cc2)cc1OC` to `COc1cccc(NC(=O)CN(C)C(C)C(=O)Nc2ccc(C(C)=O)cc2)c1` (centres unmarked), the “hERG current change (%, negative = inhibition) at 1uM” value falls from 12.5% to 2.85%.

First: Cc1ccc(C(=O)/C=C/Nc2ccc([N+](=O)[O-])cc2Br)cc1
Second: Cc1ccc(C(=O)NCC(=O)NCC(=O)OCc2ccc(Oc3ccc([N+](=O)[O-])cc3)cc2)cc1
The “hERG current change (%, negative = inhibition) at 1uM” value of the first is higher: 7% for the first, 6.47% for the second.

Compared with `COc1ccc(C2CC(=O)OC3=C2C(=O)CC(C)(C)C3)c(OC)c1` (centres unmarked), `COc1ccc(N2CC(C(=O)OCC(=O)Nc3cccc(C)c3)CC2=O)cc1` (centres unmarked) is higher in “hERG current change (%, negative = inhibition) at 1uM” value: -2.47% for the first, 5.54% for the second.

Going from `O=C(NC(=S)N1CCN(c2nc(-c3ccccc3)cs2)CC1)c1cncc(Br)c1` to `COc1ccc(-c2ccc(SCC(=O)N3CCN(c4ccccc4)CC3)nn2)cc1`, the “hERG current change (%, negative = inhibition) at 1uM” value falls from 34.7% to 6.99%.

First: O=C(CCSCCc1ccccn1)Nc1ccccn1
Second: O=C(Cn1c(-c2ccccn2)nc2ccccc21)N/N=C/c1ccccn1
The “hERG current change (%, negative = inhibition) at 1uM” value of the first is higher: 16.1% for the first, 2.58% for the second.

Compared with `O=C(O)/C=C/c1cnc[nH]1`, `O=C(O)c1ncc(Cl)c(Cl)c1Cl` is lower in “hERG current change (%, negative = inhibition) at 1uM” value: 17% for the first, 8.65% for the second.

Going from `O=C(O)CC(NNC(=O)c1ccccc1)C(=O)Nc1ccc([N+](=O)[O-])cc1` (centres unmarked) to `O=C(Cn1nnc2ccccc21)NNC(=O)c1ccccc1`, the “hERG current change (%, negative = inhibition) at 1uM” value rises from -2.38% to 16.4%.

Compared with `COCCCn1c(C(=O)N2CC(C)OC(C)C2)cc2c(=O)n3cccc(C)c3nc21` (centres unmarked), `CCOC(=O)C(C)n1cnc2scc(-c3ccc(C)c(C)c3)c2c1=O` (centres unmarked) is lower in “hERG current change (%, negative = inhibition) at 1uM” value: 12.8% for the first, 11% for the second.

First: O=c1[nH]c(=O)n(Cc2ccc(F)cc2)c(O)c1C=NCCCO
Second: CCOC(=O)c1cc(-c2ccc(F)cc2)n(CC(=O)Nc2nccs2)c1C
The “hERG current change (%, negative = inhibition) at 1uM” value of the first is higher: 10.7% for the first, 4.03% for the second.

Compared with `CCc1nnc(NS(=O)(=O)c2ccc(NC(=O)/C=C/C(=O)O)cc2)s1`, `Cn1cnnc1SCC(=O)Nc1ccc(S(N)(=O)=O)cc1` is higher in “hERG current change (%, negative = inhibition) at 1uM” value: 17% for the first, 17.6% for the second.

Going from `COCCn1cnc2c1c(=O)n(CC(=O)OCC(=O)NCCCc1ccccc1)c(=O)n2Cc1ccccc1` to `COC(=O)CN1C(=O)[C@H]2[C@@H](C3CC3)N3C(=O)CN(Cc4ccc(-c5ccccc5)cc4)C(=O)[C@@]3(Cc3ccccc3)[C@H]2C1=O`, the “hERG current change (%, negative = inhibition) at 1uM” value rises from 1.97% to 15.6%.

Compared with `Cc1cc(C)c(C(=O)CN2C(=O)NC3(CCC(C)CC3)C2=O)cc1C` (centres unmarked), `Cc1ccc(C)c(CN2CCC(CNC(=O)Nc3ccc(Br)cc3F)CC2)c1` is lower in “hERG current change (%, negative = inhibition) at 1uM” value: 9.13% for the first, 1.12% for the second.

First: CC(C)(C)C(=O)NCc1ccc(C(=O)CSc2nnc(C3CC3)n2C2CC2)s1
Second: CCC(C)[C@H](NC(=O)C1CC(=O)N(c2ccc(OC)cc2)C1)C(=O)NC1CCCC1 (some centres unmarked)
The “hERG current change (%, negative = inhibition) at 1uM” value of the first is higher: 11.9% for the first, 9.22% for the second.

Going from `CC(NC(=O)CN(C)Cc1cccs1)c1ccccc1` (centres unmarked) to `O=C(Cc1cccs1)Nc1ccccc1C(=O)O`, the “hERG current change (%, negative = inhibition) at 1uM” value falls from 13.6% to 4.62%.

Compared with `CSc1nc(C)cc(Oc2ccccc2)n1`, `O=C1CC(Sc2ncccn2)C(=O)N1c1ccccc1` (centres unmarked) is higher in “hERG current change (%, negative = inhibition) at 1uM” value: 1.37% for the first, 8.64% for the second.

Going from `CN(C(=O)c1ccccn1)C1(C(=O)NC2CCCCC2)CCCCC1` to `O=C(NC1CCCCC1)N1CCN(c2ccc([N+](=O)[O-])cc2)CC1`, the “hERG current change (%, negative = inhibition) at 1uM” value falls from 11.6% to -7.25%.

Compared with `Cc1cc(NC(=O)C(=O)c2c(C)[nH]c3ccccc23)no1`, `Cc1[nH]n(C)c(=O)c1C(=O)c1c(-c2ccccc2Cl)noc1C` is higher in “hERG current change (%, negative = inhibition) at 1uM” value: 7.01% for the first, 12.4% for the second.

Going from `Clc1ccc(N=c2ssnc2Cl)nc1` to `Cl.OCCCNCc1ccc(Cl)cc1Cl`, the “hERG current change (%, negative = inhibition) at 1uM” value rises from 8.42% to 10.5%.

Compared with `CC(Sc1nc(N(C)C)nc(N2CCOCC2)n1)C(=O)Nc1ccccc1` (centres unmarked), `O=C(Cn1cnc2ccccc21)NCCCN1CCOCC1` is lower in “hERG current change (%, negative = inhibition) at 1uM” value: 14.7% for the first, -9.03% for the second.

First: Cc1cc(C)n(Cc2ccc(C(=O)O)o2)n1
Second: CCOC(=O)c1cccc(-n2c(C)cc(C=O)c2C)c1
The “hERG current change (%, negative = inhibition) at 1uM” value of the first is higher: 14.4% for the first, 13.8% for the second.

Going from `COC(=O)c1sccc1NC(=O)CSc1ccccc1NS(=O)(=O)c1cc(Cl)ccc1Cl` to `Cc1cccc(Oc2ccccc2NS(=O)(=O)c2ccc(CCC(=O)O)cc2)c1`, the “hERG current change (%, negative = inhibition) at 1uM” value falls from 18.3% to 4.01%.

Compared with `CC12CN3CC(C)(CN(C1)C3c1cccs1)C2=O` (centres unmarked), `O=C1c2ccccc2C(O)N1Cc1cccs1` (centres unmarked) is higher in “hERG current change (%, negative = inhibition) at 1uM” value: 7.73% for the first, 8.16% for the second.

Compared with `O=C(c1ccc(F)cc1)c1cn[nH]c1-c1ccccc1O`, `N/C(=N\c1nc2ccccc2o1)NC(=O)c1ccc(F)cc1` is lower in “hERG current change (%, negative = inhibition) at 1uM” value: 8.43% for the first, -4.74% for the second.

Going from `COC(=O)c1c(NC(=O)CN2CCN(C(=O)c3ccco3)CC2)c2c(C)cccc2n1C` to `CCOc1ccc(OCC)c(NC(=O)CN2CCN(c3cc(C)ccc3C)CC2)c1.Cl`, the “hERG current change (%, negative = inhibition) at 1uM” value falls from 5.88% to 4.54%.

Going from `COc1ccc(C(=O)Nc2cc(C(=O)O)cc(C(=O)O)c2)cc1Cl` to `COc1ccc(S(=O)(=O)N2CCCCC2)cc1NC(=O)Cc1cccs1`, the “hERG current change (%, negative = inhibition) at 1uM” value rises from 6.3% to 9.97%.

Compared with `O=S(=O)(NCCSc1nnc(-c2ccco2)n1-c1ccccc1)c1ccccc1`, `Cn1c(-c2ccccc2)cnc1NCc1ccc(-c2ccccc2)cc1.O=C(O)C(=O)O` is higher in “hERG current change (%, negative = inhibition) at 1uM” value: 3.81% for the first, 11% for the second.

Going from `OCC#Cc1cnc2ccccc2c1` to `CC(C)(C)n1cc(C(=O)c2ccc3ccccc3c2O)cn1`, the “hERG current change (%, negative = inhibition) at 1uM” value rises from 1.38% to 12%.

First: Cc1cccc(C)c1NC(=O)CNC(=O)c1ccc2c(c1)OCCO2
Second: Cc1cc(C)c(NC(=O)c2ccccc2CCc2ccccc2)c(C)c1
The “hERG current change (%, negative = inhibition) at 1uM” value of the first is higher: 11.7% for the first, 3.92% for the second.

First: CC(=O)Nc1ccc(NC(=O)Nc2ccc3c(c2)N(C)C(=O)CS3)cc1
Second: CC(=O)Nc1ccc(C(=O)NNC(=O)CCCCC(=O)NNC(=O)c2ccc(NC(C)=O)cc2)cc1
The “hERG current change (%, negative = inhibition) at 1uM” value of the first is higher: 8.86% for the first, 4.15% for the second.

First: COC(=O)CSc1n[nH]c(-c2ccncc2)n1
Second: CCCN(Cc1cc2cc(OC)ccc2[nH]c1=O)C(=O)c1ccncc1
The “hERG current change (%, negative = inhibition) at 1uM” value of the first is higher: 16.7% for the first, -1.37% for the second.

Compared with `Cc1[nH]c2ccc(OC(=O)N3CCOCC3)cc2c1C(=O)OC(C)C`, `CCc1noc(C)c1C(=O)Nc1nc2ccc(OC)cc2s1` is lower in “hERG current change (%, negative = inhibition) at 1uM” value: 5.49% for the first, -0.289% for the second.

Compared with `O=C(CSc1nc2ccccc2c(=O)[nH]1)Nc1ccc(Br)cc1`, `Cc1ccc(OCCOC(=O)CCc2nc3ccccc3c(=O)[nH]2)cc1` is higher in “hERG current change (%, negative = inhibition) at 1uM” value: 9.82% for the first, 14.5% for the second.

Compared with `COc1ccccc1C(CNC(=O)c1ccc(S(=O)(=O)N2CCCCC2)cc1)N(C)C` (centres unmarked), `O=C(NCC1(N2CCCCC2)CCCCC1)c1ccc(NS(=O)(=O)c2ccc(F)cc2)cc1` is lower in “hERG current change (%, negative = inhibition) at 1uM” value: 5.72% for the first, -5.49% for the second.

First: CCc1ccc(C(=O)COC(=O)C(Cc2ccccc2)NC(=O)C2CCC(C)CC2)cc1 (centres unmarked)
Second: O=C(CCn1nc(-c2ccc(Cl)cc2)c2ccccc2c1=O)NCC1CCCO1 (centres unmarked)
The “hERG current change (%, negative = inhibition) at 1uM” value of the first is higher: 4.79% for the first, -1.18% for the second.

Compared with `O=C1c2ccc(-c3ccc4c(c3)C(=O)N(CCO)C4=O)cc2C(=O)N1CCO`, `CC(OC(=O)CN1C(=O)C2CC=CCC2C1=O)C(=O)Nc1ccc(F)cc1Cl` (centres unmarked) is lower in “hERG current change (%, negative = inhibition) at 1uM” value: 12.8% for the first, 2.75% for the second.

Compared with `O=C(C[n+]1cc(-c2ccc(F)cc2)n2c1CCC2)Nc1nc(-c2ccc(F)cc2)cs1.[Cl-]`, `Cc1ccc(-n2cc(CN3CCN(Cc4nccn4C)CC3)c(-c3cccc(C)c3)n2)cc1` is higher in “hERG current change (%, negative = inhibition) at 1uM” value: -3.27% for the first, 3.93% for the second.

First: O=C(CC1C(=O)NCCN1Cc1c(F)cccc1Cl)NCCCn1cccn1 (centres unmarked)
Second: CN(CC(=O)Nc1cccc(C#N)c1)Cc1ccc(Cl)cc1
The “hERG current change (%, negative = inhibition) at 1uM” value of the first is higher: 9.02% for the first, -17.9% for the second.

Going from `CCn1c(CN2CCN(c3cccc(C)c3C)CC2)n[nH]c1=S` to `O=CN1CCN(C(=O)c2ccc(-c3nc4ccccc4s3)s2)CC1`, the “hERG current change (%, negative = inhibition) at 1uM” value falls from 8.22% to 3.36%.

Compared with `COc1cccc(OC)c1OCC(C)CNCC1CCCO1.Cl` (centres unmarked), `COc1ccccc1OCCNC1CCCC1` is lower in “hERG current change (%, negative = inhibition) at 1uM” value: 7.67% for the first, 0.73% for the second.

First: CCOC(=O)C1=C(O)/C(=C/c2ccc(OCC(=O)O)c(OCC)c2)SC1=Nc1ccc(C)cc1
Second: O=C(NCCNS(=O)(=O)c1cccc(C(F)(F)F)c1)c1cc(OCC(F)(F)F)ccc1OCC(F)(F)F
The “hERG current change (%, negative = inhibition) at 1uM” value of the first is higher: 16.6% for the first, 12.2% for the second.

Going from `CNC(C)C#Cc1ccc2c(=O)c3c(OC)cccc3oc2c1` (centres unmarked) to `O=C(Nc1nnc(-c2ccc(Br)cc2)o1)C1=COCCO1`, the “hERG current change (%, negative = inhibition) at 1uM” value rises from 11% to 14.7%.

Compared with `CN1CCN(NC(=O)c2ccc(F)cc2)CC1`, `Cc1ccc(S(=O)(=O)NCCCN2CCCC2)cc1` is lower in “hERG current change (%, negative = inhibition) at 1uM” value: 17.8% for the first, 8.21% for the second.

With `C=CCN1C(=O)[C@]2(c3ccccc31)C1CCCC=C1C(C#N)=C(N)C2(C#N)C#N` (some centres unmarked) the “hERG current change (%, negative = inhibition) at 1uM” value was -1.31%.
